From PubChem BioAssay AID504845 (National Center for Advancing Translational Sciences (NCATS), 2011)
In all, about 390,000 compounds went through this assay and about 150 (0.038%) were called active. About 3% were inconclusive and are not listed. Calls come from the whole dose curve; as a rule, active = well fitted inhibition curve with a large enough effect; inconclusive = small, poorly fitted or top-dose-only effect; inactive = no such curve, though single readings can be large or run the other way. The entries are a selection whose mix differs from that of the whole data set. A structure can be active in one record and inactive in another.

Molecular target: Regulator of G-protein signaling 4 (Homo sapiens) (UniProt P49798)
Experiment: Inhibitors of Regulator of G Protein Signaling (RGS) 4: qHTS; note: nearly all actives have a fitted effect of over 75% in size
Conditions: Transcreener GDP fluorescence polarization, RGS4-accelerated GTP hydrolysis; series mostly up to 114 µM; activity change, negative = inhibition: at the top concentration
Procedure, shortened: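 MLSMR compounds (23 nl, pin-transferred) preincubated 10 min at room temperature with a 500nM (2x) first reagent, then RGS4 at 900nM (2x) plus Transcreener GDP mix added; fluorescence polarization (620/688 nm) read before and after 90 min at 30 °C.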
% is set by controls: 0 for no effect and ±100 for the full control effect; potency is the fitted concentration of half-maximal effect.

Chain of UniProt P49798 (P49798 whole entry, looked up): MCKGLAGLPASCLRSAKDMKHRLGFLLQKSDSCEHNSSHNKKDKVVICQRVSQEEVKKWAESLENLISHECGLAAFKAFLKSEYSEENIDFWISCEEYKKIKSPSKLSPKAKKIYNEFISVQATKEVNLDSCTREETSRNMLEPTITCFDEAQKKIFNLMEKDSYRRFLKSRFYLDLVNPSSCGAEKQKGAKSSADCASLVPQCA

| SMILES | activity change, negative = inhibition | Potency |
| --- | --- | --- |
| CCCCCCCCCCCCCCCCCCOC[C@H](COP(=O)([O-])OCC[N+](C)(C)C)OC | inactive: -0.397% [at 56.9 µM] |  |
| CNC(=O)[C@H]1O[C@@H](n2cnc3c(NCc4ccc(N)cc4)ncnc32)[C@H](O)[C@@H]1O | inactive: -11.7% [at 56.9 µM] |  |
| COc1cc2c(cc1O)CC[C@@H]1[C@@H]2CC[C@]2(C)[C@@H](O)CC[C@@H]12 |  | inactive |
| NC(=O)C1=CN(C2OC(COP(=O)(O)OP(=O)(O)OC[C@H]3O[C@@H](n4cnc5c(N)ncnc54)[C@H](OP(=O)(O)O)[C@@H]3O)C(O)C2O)C=CC1 (stereo partly specified) |  | active: 13.4 µM |
| O=S(=O)(/N=S1\CC=CCN1S(=O)(=O)c1ccccc1)c1ccccc1 (stereo unspecified) | inactive: -125% |  |
| Cc1ccc(N(CC2=NCCN2)c2cccc(O)c2)cc1 |  | inactive |
| CC[n+]1c(/C=C/C=C2/N(C)c3ccccc3C2(C)C)sc2ccccc21 |  | active: 21.2 µM |
| Cc1ccc2occ(C3NC(C(=O)O)CS3)c(=O)c2c1 (stereo unspecified) | inactive: -7.33% |  |
| COc1cc2nc(N3CCN(C(=O)OCc4ccccc4)[C@H](C(=O)NC(C)(C)C)C3)nc(N)c2cc1OC | inactive: -11.3% |  |
| COc1ccc(C(=O)NCCCN2CCOCC2)cc1Br | inactive: 71.1% |  |
| O=C(OCCN1CCOCC1)C1(c2ccccc2)CCCCC1 |  | inactive |
| Cc1cccc(Cn2nc(C)cc2NC(=O)CCCn2ccc([N+](=O)[O-])n2)c1 | inactive: 61.9% |  |
| Cc1ccc(Nc2c(-c3ccc(C)o3)nc3cnccn23)cc1 | inactive: -94.1% |  |
| Oc1ccc(NCc2ccc(OCc3ccccc3)cc2)cc1 | inactive: -48.2% |  |
| c1ccc2c(c1)CCCC2C1=NCCN1 (stereo unspecified) |  | inactive |
| CCNC(=O)[C@H]1O[C@@H](n2cnc3c(N)nc(NCCc4ccc(CCC(=O)O)cc4)nc32)[C@H](O)[C@@H]1O | inactive: 1.91% |  |
| COc1ccc(Oc2ccc(N/C=C3/CCCC3=O)cc2)cc1 | inactive: 3.17% |  |
| C[C@](N)(Cc1ccc(O)cc1)C(=O)O | inactive: 2.25% [at 56.9 µM] |  |
| CCCC[C@@H]1CCCO[C@@](C(=O)NCc2ccc(C)o2)(C(F)(F)F)C1 | inactive: -49.7% |  |
| C[N+](C)(C)CCOP(=O)(O)OP(=O)([O-])OC[C@H]1O[C@@H](n2ccc(N)nc2=O)[C@H](O)[C@@H]1O |  | inactive |
| O=C1NC(=O)C(c2ccccc2[N+](=O)[O-])=C1Nc1ccc(O)c(Cl)c1 | inactive: -0.261% |  |
| CCCCCCCCCCCCCCCC(=O)NCC(COP(=O)([O-])OCC[N+](C)(C)C)OCC (stereo unspecified) |  | active: 21.2 µM |
| Cc1ccccc1-c1nc(CS(=O)CC(=O)NCCc2ccc(Cl)cc2)c(C)o1 (stereo unspecified) | inactive: -17.3% |  |
| N#C/C(=C\c1ccc(O)c(O)c1)C(=O)Nc1ccccc1 | inactive: -13.3% |  |
| CCOC(=O)Cc1csc(NC(=O)Cc2ccccc2)n1 | inactive: 56.5% |  |
| C[C@H]1CCC2[C@](C)(CO)[C@@H](O)CC[C@]2(C)[C@@]12CCC(CO)(CCO)O2 (stereo partly specified) | inactive: -5.53% |  |
